The densities may have been worked out from excess volumes.
Experiment: xn = mol fraction of the nth substance listed
Settings: 100 kPa

CC(=O)c1ccccc1 + CCCC[n+]1ccn(C)c1.O=S(=O)([N-]S(=O)(=O)C(F)(F)F)C(F)(F)F
mass density [kg/m3]
Settings | x1 = 0.1001 | x1 = 0.2301 | x1 = 0.2995 | x1 = 0.4002 | x1 = 0.5003 | x1 = 0.6014 | x1 = 0.7002 | x1 = 0.8003 | x1 = 0.9
298.15 K | 1418.9 | 1394.6 | 1379.7 | 1354.4 | 1324.4 | 1287.7 | 1243.7 | 1187.8 | 1116.4
318.15 K | 1400.9 | 1376.5 | – | 1336.3 | – | 1269.8 | 1225.7 | 1169.9 | 1098.8
348.15 K | – | – | 1334.1 | 1308.9 | 1279.2 | 1242.5 | 1198.7 | 1143.1 | 1072.3

COc1ccccc1 + CCCC[n+]1ccn(C)c1.O=S(=O)([N-]S(=O)(=O)C(F)(F)F)C(F)(F)F
mass density [kg/m3]
Settings | x1 = 0.1018 | x1 = 0.2008 | x1 = 0.3001 | x1 = 0.4008 | x1 = 0.5008 | x1 = 0.6001 | x1 = 0.7003 | x1 = 0.8002 | x1 = 0.9
298.15 K | 1422.8 | 1405.2 | – | 1359.4 | – | – | 1245.4 | 1184.5 | 1103.7
318.15 K | 1403.4 | 1386 | 1365.5 | 1340.6 | 1310.6 | 1273.8 | – | – | 1085.2
348.15 K | 1375.1 | – | 1336.6 | 1311.9 | 1282.2 | – | 1199 | 1138.5 | 1057
